# PubChem BioAssay AID686979 (National Center for Advancing Translational Sciences (NCATS), 2013)
# The whole screen tested about 420,000 compounds, of which about 50,000 (12%) were called active. Inconclusive means that the source gave no clear call. Such entries were picked first, then a sample of the others. Calls come from the whole dose curve; as a rule, active = well fitted inhibition curve with a large enough effect; inconclusive = small, poorly fitted or top-dose-only effect; inactive = flat fitted curve, though single readings scatter. No potency is given beside an inconclusive call; the fits are too rough.
# Assay: qHTS for Inhibitors of human tyrosyl-DNA phosphodiesterase 1 (TDP1): qHTS in cells in presence of CPT; note: nearly all actives have a fitted effect of over 55% in size
# Conditions: chicken DT40 Tdp1-/-;hTDP1 cells + 20 nM CPT, ATP luminescence, 48 h; activity change, negative = growth inhibition: at 46.2 µM (top of the series)
# Summary of the method: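 Cell growth measured by CellTiter-Glo luminescence after a minimum 48 h, 37 C compound exposure with 20 nM CPT in Tdp1-knockout DT40 cells stably expressing hTDP1, seeded 400/well; qHTS titration format.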
# % is set by controls: 0 for no effect and ±100 for the full control effect; potency is the fitted concentration of half-maximal effect; tags give direction and shape of the fitted curve.
Compound,Potency,"activity change, negative = growth inhibition"
CCCCN(C)C(=O)c1sc(=O)n(Cc2c(C)cccc2C)c1C,"inconclusive [inhibitor, single point]",
O=C(O)CCCCCN1C(=O)/C(=C\c2cn(-c3ccccc3)nc2-c2cccs2)SC1=S,"inconclusive [inhibitor, single point]",
CCOC(=O)c1c(C)n(-c2ccccc2)c2ccc(OC(=O)c3ccccc3Cl)cc12,"inconclusive [inhibitor, single point]",
O=C(c1ccco1)N1CCC(c2nc3c(nnn3Cc3ccc(F)cc3)c(=O)[nH]2)CC1,inactive,
Cc1cc(C)c(C)c(S(=O)(=O)Nc2ccccc2C(=O)NCCCN2CCOCC2)c1C,"inconclusive [inhibitor, single point]",
O=C(CSc1ncc(-c2ccc(F)cc2)[nH]1)Nc1cccc(O)c1,"inconclusive [inhibitor, single point]",
COc1ccc(N2CCN(C(=O)c3cc(=O)c4cc(Cl)ccc4o3)CC2)cc1,"inconclusive [inhibitor, single point]",
O=C(NCC1CCN(Cc2ccccc2F)CC1)C1CCCN(c2ncnc3c2nc2n3CCCCC2)C1 (stereo not given),"inconclusive [inhibitor, single point]",
Cc1cccc(/C=c2\s/c(=C\C(=O)C(C)(C)C)[nH]c2=O)c1,"inconclusive [inhibitor, single point]",
Cc1cccc(-c2c3c(=O)n(C)c(=O)n(C)c3cn2C(C)C)c1,active: 16.4 µM,
CCOc1ccc(CCNC(=O)C2CCCN(c3nnc(C)c4c(C)n(-c5ccccc5)nc34)C2)cc1 (stereo not given),active: 20.6 µM,
CCCCCCn1c(CN2CCCC(C)C2)nc2c1c(=O)n(C)c(=O)n2C (stereo not given),"inconclusive [inhibitor, single point]",
NC(=O)c1c(NC(=O)c2noc3c2CCCC3)sc2c1CCCC2,"inconclusive [inhibitor, single point]",
Cc1ccc(Oc2cc(C)nc(-c3ccccc3O)n2)cc1,,inconclusive: -34.7% [inhibitor]
CCN1CCCc2cc(CN(CCN3CCOCC3)C(=S)Nc3cccc(OC)c3)ccc21,"inconclusive [inhibitor, single point]",
CC(C)C(=O)C1=Cc2cccc([N+](=O)[O-])c2OC1N1CCOCC1 (stereo not given),"inconclusive [inhibitor, single point]",
CC(C)Oc1ccc(S(=O)(=O)N2CCOCC2)cc1NC(=O)c1nn(C)c(=O)c2ccccc12,"inconclusive [inhibitor, single point]",
O=C1C=C(Nc2ccc(Cl)cc2)C(=O)N1c1ccc(Cl)cc1,inactive,
CCOc1cc2[nH]c(=O)n(CCC(=O)N3CCN(c4cccc(Cl)c4)CC3)c(=O)c2cc1OCC,"inconclusive [inhibitor, partial curve]",
N=c1n(Cc2ccccc2)c2ccccc2n1CC(O)c1ccccc1 (stereo not given),active: 10.3 µM,
CC(C)(C)OC(=O)NCc1ccc(NC(=O)c2nc[nH]c2C(=O)NCCCCCCNC(=O)c2[nH]cnc2C(=O)Nc2ccc(CNC(=O)OC(C)(C)C)cc2)cc1,active: 5.8 µM,
Cc1ccc(C)c(-n2sc3ccc(F)cc3c2=O)c1,active: 3.26 µM,
Cc1ccc(Sc2c(C=O)c3ccccc3n2C)cc1,"inconclusive [inhibitor, full curve, poor fit]",
Cc1cc(C)c(S(=O)(=O)NCc2cccs2)cc1C,inactive,

Compound,Potency,"activity change, negative = growth inhibition"
CCOc1ccc(-c2csc3ncnc(Nc4cccc(O)c4)c23)cc1,"inconclusive [inhibitor, partial curve]",
CCN(Cc1ccccc1)S(=O)(=O)c1ccccc1Br,,inconclusive: -31.3% [inhibitor]
O=C(NNc1nc2ccccc2nc1C(F)(F)F)c1ccccc1,"inconclusive [inhibitor, single point]",
O=C(CSc1n[nH]c(=O)n1C1CC1)Nc1ccc(Cl)cc1Cl,"inconclusive [inhibitor, single point]",
c1cc(-c2ccc(CN3CCOCC3)cc2)n2ccnc2c1,inactive,
Cc1cc(C)n(C(C)CC(=O)Nc2ccc3c(c2)OCCO3)n1 (stereo not given),inactive,
O=C(Cn1nnc(-c2ccccc2Cl)n1)Nc1cccc(S(=O)(=O)N2CCCC2)c1,active: 23.1 µM,
COc1ccc(C(=O)NCC(c2ccco2)S(=O)(=O)c2ccccc2)cc1 (stereo not given),"inconclusive [inhibitor, single point]",
CCOc1ccccc1N(CC(=O)Nc1cccnc1)S(=O)(=O)c1ccc(C)cc1,active: 18.4 µM,
CC(=O)c1ccc(NS(=O)(=O)c2c(C)cc(C)cc2C)cc1,inactive,
Cc1ccc(-c2nc3cc(C)c(Br)c(C)n3c2CC2CCCCC2)cc1,"inconclusive [inhibitor, partial curve, poor fit]",
Cc1ccc(S(=O)(=O)NC2CC3CCC2C3)cc1 (stereo not given),inactive,
CC(C)CCn1cnc2c(oc3nc4c(cc32)CCCC4)c1=O,"inconclusive [inhibitor, single point]",
Cc1ccccc1OCC1Cn2c(nc3c2c(=O)[nH]c(=O)n3C)O1 (stereo not given),"inconclusive [inhibitor, partial curve]",
CC(C)(C)c1ccc(OCC(O)CN2CCc3ccccc3C2)cc1 (stereo not given),active: 8.2 µM,
COc1cc(C(=O)NCc2cccc3ccccc23)ccc1OCc1ccccc1,"inconclusive [inhibitor, partial curve, poor fit]",
O=C(NC(=S)Nc1cccc(O)c1)C12CC3CC(CC(C3)C1)C2,"inconclusive [inhibitor, single point]",
CC1CC/C(=N/Nc2ccccc2)C(=O)N1 (stereo not given),inactive,
COc1ccc(C2=NOC(C(=O)NCc3ccc(F)cc3)C2)cc1OC (stereo not given),active: 5.8 µM,
CC1(C)O[C@@H]2C[C@H]3[C@@H]4CCC5=CC(=O)C=C[C@]5(C)[C@@]4(F)[C@@H](O)C[C@]3(C)[C@]2(C(=O)CO)O1,,inconclusive: -31.4% [inhibitor]
COc1ccc(C)cc1NS(=O)(=O)c1ccc2c(c1)CCN2C(C)=O,"inconclusive [inhibitor, single point]",
Cc1cc(/C=C2\SC(=O)N(C)C2=O)c(C)n1-c1ccc(O)cc1,"inconclusive [inhibitor, full curve]",
CCN1c2ccccc2NC2N=C(OC)C(c3ccccc3)C21 (stereo not given),active: 11.6 µM,
CN(Cc1cn(C)nc1-c1ccc(Oc2ccccc2)cc1)CC1COCCO1 (stereo not given),"inconclusive [inhibitor, single point]",

Compound,Potency,"activity change, negative = growth inhibition"
CC(=O)N1CCCc2cc(S(=O)(=O)N3CCC(C(=O)NCc4ccc(F)cc4)CC3)ccc21,"inconclusive [inhibitor, single point]",
COCC(C)N1CCC(n2nccc2NC(=O)CCOc2ccccc2)CC1 (stereo not given),inactive,
COc1cccc(-c2nccc(NCc3cccnc3)n2)c1,"inconclusive [inhibitor, single point]",
CC1CCCC(NC(=O)COC(=O)Cc2ccsc2)C1C (stereo not given),inactive,
COc1ccc(/C=N/NC(=O)c2cccs2)c2ccccc12,"inconclusive [inhibitor, single point]",
CC(C)N1C[C@@H](Sc2ccccn2)C[C@H]1C(=O)Nc1ccc2c(c1)Nc1ccccc1CC2,,inactive: 10.8% [at 9.04 µM]
CCCCS(=O)(=O)N1CN(S(=O)(=O)CCCC)C2NC(=O)NC21 (stereo not given),inactive,
COCC(=O)N1CCC2(CC1)CCN(C(c1ccccc1)c1ccccc1)CC2,inactive,
Cc1cccc(NC(=O)C2CCC(CNS(=O)(=O)c3ccc4c(c3)CCCC(=O)N4)CC2)c1C (stereo not given),"inconclusive [inhibitor, partial curve]",
COc1ccc(OC)c(Nc2nc3ccc(C)cc3n3cnnc23)c1,active: 16.4 µM,
CCCN(C(=O)C1CCN(S(=O)(=O)c2c(C)noc2/C=C/c2ccc(C)cc2)CC1)c1ccccc1F,"inconclusive [inhibitor, single point]",
C=CCN(c1ccc(OC)cc1)S(=O)(=O)c1ccc(Cl)c(C(=O)OCC(=O)c2c(N)n(C)c(=O)n(C)c2=O)c1,"inconclusive [inhibitor, single point]",
CCOC(=O)/C(C#N)=C\c1ccc(N2CCN(C/C=C/c3ccccc3)CC2)cc1,"inconclusive [inhibitor, single point]",
Cc1[nH]n(-c2nc(-c3ccc(Cl)cc3)cs2)c(=O)c1N=Nc1ccc(O)cc1,active: 2.59 µM,
CC(C)C[C@@H](CO)N1CCN(CCc2ccccc2)CCC1=O,"inconclusive [inhibitor, single point]",
CC(=O)c1cn(CCOc2ccc(F)cc2)c2ccccc12,active: 14.6 µM,
COc1ccc(CN2C3CCC2CC(NC(=O)c2cc(OC)c(OC)c(OC)c2)C3)cc1 (stereo not given),inactive,
C=CCC1C=CCC(CC=C)N1C(=O)c1ccccc1[N+](=O)[O-] (stereo not given),active: 13 µM,
Cc1nc(-c2ccc(F)cc2)sc1CCNC(=O)c1ccccc1,active: 14.6 µM,
O=C(CSc1nnc(NC(=O)c2ccc(F)cc2)s1)NC1CCCC1,inactive,
CC1CC(C)CN(C(=S)Nc2ccc3nc4n(c(=O)c3c2)CCCCC4)C1 (stereo not given),"inconclusive [inhibitor, partial curve, poor fit]",
COc1cc(Br)cc(/C=N/NC(=O)Cc2ccccc2)c1O,active: 0.517 µM,
